According to patent US11000038B2, “Pyridone compounds and agricultural and horticultural fungicides containing the same as active ingredients” (priority 2017, dated 2021):

How the values were obtained:
[1] = system: cucumber anthracnose fungi (Colletotrichum orbiculare); test: Test Example H: cucumber anthracnose, spray treatment of cucumber plants; conditions: 250 ppm spray, 2.5 ml/pot, cucumber Sagami Hanjiro; 6 to 10 days from inoculation
[2] = system: rice blast fungi (Magnaporthe grisea); assay type: in vivo; conditions: spray treatment of rice plants; control value=100{1-(n/3)}

SMILES | Test H control value class (cucumber anthracnose) [1] | Test A control value class (rice blast) [2]
COc1cc(F)c(-c2c(Br)c(=O)c(Cl)cn2Cc2ccccc2)c(F)c1 [Compound 59] | H (H shows the control value of more than 50%) | H (H shows the control value of more than 50%)
O=c1c(Cl)cn(-c2ccccc2Cl)c(-c2c(F)cccc2F)c1Br [Compound 60] | H (H shows the control value of more than 50%) | H (H shows the control value of more than 50%)
O=c1c(Cl)cn(-c2ccccc2Cl)c(-c2c(F)cccc2F)c1Cl [Compound 61] | H (H shows the control value of more than 50%) | H (H shows the control value of more than 50%)
Cc1ccccc1-n1cc(Cl)c(=O)c(Br)c1-c1c(F)cc(F)cc1F [Compound 62] | H (H shows the control value of more than 50%) | H (H shows the control value of more than 50%)
Cc1ccccc1-n1cc(Cl)c(=O)c(Cl)c1-c1c(F)cc(F)cc1F [Compound 63] | H (H shows the control value of more than 50%) | H (H shows the control value of more than 50%)
COc1cc(F)c(-c2c(Cl)c(=O)c(Cl)cn2-c2ccccc2C)c(F)c1 [Compound 64] | H (H shows the control value of more than 50%) | H (H shows the control value of more than 50%)
COc1cc(F)c(-c2c(Br)c(=O)c(Cl)cn2-c2ccccc2C)c(F)c1 [Compound 65] | H (H shows the control value of more than 50%) | H (H shows the control value of more than 50%)
Cc1ccccc1-n1cc(Br)c(=O)c(Cl)c1-c1c(F)cc(F)cc1F [Compound 66] | H (H shows the control value of more than 50%) | H (H shows the control value of more than 50%)
Cc1ccccc1-n1cc(Br)c(=O)c(Br)c1-c1c(F)cc(F)cc1F [Compound 67] | H (H shows the control value of more than 50%) | H (H shows the control value of more than 50%)
COc1cc(F)c(-c2c(Br)c(=O)c(Br)cn2-c2ccccc2C)c(F)c1 [Compound 68] | H (H shows the control value of more than 50%) | H (H shows the control value of more than 50%)
O=c1c(Cl)cn(CCCC(F)(F)F)c(-c2c(F)cc(F)cc2F)c1Cl [Compound 69] | L (L shows the control value of 50% or less) | L (L shows the control value of 50% or less)
O=c1c(Cl)cn(CCCC(F)(F)F)c(-c2c(F)cc(F)cc2F)c1Br [Compound 70] | L (L shows the control value of 50% or less) | L (L shows the control value of 50% or less)
O=c1c(Br)cn(CCCC(F)(F)F)c(-c2c(F)cc(F)cc2F)c1Cl [Compound 71] | H (H shows the control value of more than 50%) | L (L shows the control value of 50% or less)
O=c1c(Br)cn(CCCC(F)(F)F)c(-c2c(F)cc(F)cc2F)c1Br [Compound 72] | L (L shows the control value of 50% or less) | L (L shows the control value of 50% or less)
CC(c1ccccc1)n1cc(Cl)c(=O)c(Br)c1-c1c(F)cc(F)cc1F (stereo not shown) [Compound 73] | L (L shows the control value of 50% or less) | H (H shows the control value of more than 50%)
CC(c1ccccc1)n1cc(Cl)c(=O)c(Cl)c1-c1c(F)cc(F)cc1F (stereo not shown) [Compound 74] | L (L shows the control value of 50% or less) | H (H shows the control value of more than 50%)
COc1ccccc1-n1cc(Cl)c(=O)c(Cl)c1-c1c(F)cc(F)cc1F [Compound 75] | H (H shows the control value of more than 50%) | H (H shows the control value of more than 50%)
CC(c1ccccc1)n1cc(Cl)c(=O)c(I)c1-c1c(F)cc(F)cc1F (stereo not shown) [Compound 76] | L (L shows the control value of 50% or less) | H (H shows the control value of more than 50%)
CC(c1ccccc1)n1cc(Br)c(=O)c(Cl)c1-c1c(F)cc(F)cc1F (stereo not shown) [Compound 77] | L (L shows the control value of 50% or less) | H (H shows the control value of more than 50%)
CC(c1ccccc1)n1cc(Br)c(=O)c(Br)c1-c1c(F)cc(F)cc1F (stereo not shown) [Compound 78] | L (L shows the control value of 50% or less) | H (H shows the control value of more than 50%)
O=c1c(Cl)cn(Cc2ccccc2Cl)c(-c2c(F)cc(F)cc2F)c1Cl [Compound 79] | L (L shows the control value of 50% or less) | H (H shows the control value of more than 50%)
O=c1c(Cl)cn(Cc2ccccc2Cl)c(-c2c(F)cc(F)cc2F)c1Br [Compound 80] | L (L shows the control value of 50% or less) | H (H shows the control value of more than 50%)
COc1ccccc1-n1cc(Br)c(=O)c(Cl)c1-c1c(F)cc(F)cc1F [Compound 81] | H (H shows the control value of more than 50%) | H (H shows the control value of more than 50%)
COc1cc(F)c(-c2c(Br)c(=O)c(Cl)cn2C(C)c2ccccc2)c(F)c1 (stereo not shown) [Compound 82] | H (H shows the control value of more than 50%) | H (H shows the control value of more than 50%)
COc1cc(F)c(-c2c(Cl)c(=O)c(Cl)cn2C(C)c2ccccc2)c(F)c1 (stereo not shown) [Compound 83] | H (H shows the control value of more than 50%) | H (H shows the control value of more than 50%)
COc1cc(F)c(-c2c(Br)c(=O)c(Cl)cn2CCCC(F)(F)F)c(F)c1 [Compound 84] | L (L shows the control value of 50% or less) | L (L shows the control value of 50% or less)
